The list shows a part of the results.
Test system: PfAP2-HC AP2 domain (GST-tagged)
Experiment: gcPBM binding intensity (ln(normalized median fluorescence intensity)); higher = stronger DNA binding
How it was run: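 Binding intensity is defined as the maximum Masliner-normalised natural-log median intensity across replicate spots for either probe orientation. It was measured on an Agilent 4 × 180k array of primer-extended double-stranded 36-bp intergenic genomic probes and negative controls, to which GST-tagged P. falciparum DNA-binding domains made in E. coli were applied for 1 h in 1× PBS with 1% milk, 0.2 mg/ml BSA, 0.5% salmon testes DNA and 0.03% Triton X-100. Detection was by Alexa488 anti-GST antibody and scanning at 488 nm.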

Row | Sequence | gcPBM binding intensity (ln)
1 | TAATTGTACGCCAATACACACAGAATTAAAATGTAG [CACACA_site4234] | 9.83
2 | TTTTTAAAGTTTTATACACACACCAAAATTATTCTA [CACACA_site600] | 9.84
3 | GAAAAAATTTTATGGTGTACTTTATTTATTTATATA [XGTACX_site6323] | 9.7
4 | ATGTTGTGTATATATACACACATACATATATATATA [CACACA_site8461] | 9.92
5 | GAAATATTTAGACACACACACAAACATATAAATATA [CACACA_site6980] | 11.1
6 | GATTATATTATATATTAAATATAAATATGTATTATA [TGCATGCA_negctrl_site66] | 9.46
7 | AATGGAAATGTAAAATGTACAGGACGCACACACATA [XGTACX_site7788] | 10.4
8 | AATGAGAAGGACTGCACACTAAAATGGAAGGAGAAA [CACACA_site1575] | 9.94
9 | AAAAAAAATTAAAATAAATTAAAAAGTAATTATATA [GTGCAC_negctrl_site615] | 9.48
10 | ATTAAGTTCAAATGTAGTACGTGTAAAAAAAAAAAA [XGTACX_site1578] | 9.78
11 | TACCATGTTCAAATTACACACATATAATGTAATATA [CACACA_site5150] | 9.68
12 | ATATATAATATTTTTATTTTTATTTTTTTTTTATGA [TGCATGCA_negctrl_site577] | 9.41
13 | TTTATATATGTAAATGCACACATATGTGTATATACT [CACACA_site8493] | 10
14 | AAAATAAATAAATAAATAAATATATATATATATATA [XGTACX_negctrl_site345] | 9.54
15 | TATAGGTATATATTATGTACTTATAATTATATAGAT [XGTACX_site1912] | 9.51
16 | TTATTACATGTTACTTAACACACATCTGGTGAAATA [CACACA_site7939] | 9.7
17 | GGAAAGACAGTTCACAGTACCCAGTAAACTCTACGG [XGTACX_site2557] | 9.61
18 | AAAATATAGTAATATATATATGTATATTATTTGTGG [CACACA_negctrl_site1590] | 9.77
19 | TGTCTTTAAATTTCTCAACACACAGTTATAAAAAAT [CACACA_site8930] | 9.46
20 | GGGTCAAGTAAGCTGTTCCTCTTTTTCTTTCTCACT [GTGCAC_negctrl_site473] | 10
21 | TATAAATTTAAAATGACACACACTAATATTATTTAA [CACACA_site8334] | 10.1
22 | ATACGATTGAAACATTGTACATGAATATAAAAAAAT [XGTACX_site5704] | 9.72

Row | Sequence | gcPBM binding intensity (ln)
23 | TTGTATATATATGGAAAAATATATATATATATATAT [GTGCAC_negctrl_site591] | 9.36
24 | TTTATTTATAGACACACACACAAAAAAAAAAAAAAA [CACACA_site7280] | 10.3
25 | CATTTATATTATAAATGTACAAAGTTCGTTTGTTCC [XGTACX_site1305] | 9.53
26 | TTTTTTTTTTTTTTTATAAAAGATAATTTTTTTTTA [CACACA_negctrl_site133] | 8.99
27 | TCAAAGCACACATACACACACATATAGATTTATATA [CACACA_site6272] | 10.2
28 | TAAATAAATATATATTCACACACAAACATATATATA [CACACA_site9332] | 10.5
29 | TCTTCATAAAAATAAAGTACATTATATATATAAATA [XGTACX_site3775] | 9.37
30 | TAAACGTTAGTATGTGTGCACATTAGTAATTTAAAA | 10.1
31 | TTTTTATTATTCTTAAGGATATAACAAAAAAGAAAA [XGTACX_negctrl_site584] | 9.36
32 | ATTAATATTATTAGAAGTACTAATAGTAGTATAACT [XGTACX_site1325] | 9.61
33 | TTCTAAAAAAATAAAATTATCAAGGTTTTTAAACGT [CACACA_negctrl_site308] | 9.45
34 | GCATCCCTTTTTATGTGTACATACAAAGGCAATTAC [XGTACX_site6977] | 9.82
35 | AAAATATAAATCTAAGCATGCAAAAAAAATTTATAA [TGCATGCA_site1008] | 9.72
36 | TATTGTTTTAAAGAGACATGCAATATATATTATTCC [TGCATGCA_site752] | 9.53
37 | TAATATTATAGATAAACACACATACACATGTAAATA [CACACA_site7049] | 9.93
38 | AAATGAAATTTGTATACACACAAATATATATATATA [CACACA_site836] | 9.99
39 | TTTTTATTCGATGATCAAATAGGTATATACAAAAAA [CACACA_negctrl_site1813] | 9.44
40 | AATAATAATAGTAATATGTACATATATATATATATA [TGCATGCA_negctrl_site542] | 9.72
41 | TATAAGCAAAAACACACACACATATATATATATATA [CACACA_site3804] | 10.2
42 | TTATTTAAAAAAAAGTGTACCCATATATTATAAATC [XGTACX_site8374] | 9.52
43 | AATTTATATTTTCGTAGTACGTATTTTATTCTTTTG [XGTACX_site4162] | 9.79
44 | TATAAGGTGTCCTATACACACTCCAATAGATATATA [CACACA_site7066] | 9.62

Reference: the supplement of paper PMC11417369
